The source gives no read counts; variants with many changes may rest on few reads.

We go through 56 variants from the RNAGym collection of RNA variant scans (doi:10.7554/elife.90254).

B1: LINE1-mini (parent)
chain: GGCAGAGCUCAACACAGCGUGGCAAAGUGGCUGUGGCUAGACUGCC

The variants in this data set derive from B1. Kind of data set: self-cleavage, relative activity (ratio to wild type); higher = more cleavage; in vitro, sequencing; the parent is a self-cleaving ribozyme.
With GGCGCAGCUCAACACAAAGUGGCAAAGUGGCUGUGGCUAGACUGCC [A4G G5C G17A C18A], the self-cleavage was found to be 0.05.
GGCGGAGCUCAACACAGUGUAGCAAAGUGGCUGUACCUAGACUGCC [A4G C18U G21A G35A G36C]: the self-cleavage stood at 0.18.
Under GGCGGAGCUCAAAACAGCGUGGCAAAGUGGCUGUGGCUAGACUGCU [A4G C13A C46U] stands 0.45; under GGCGGAGCUAAACACAGCGUGGCAAAGUGGCUGUGGCUAGAGUGCC [A4G C10A C42G], 0.09; under GGCGGAGCUGAACACAGCGUGGCAAAGUGGCUGUGGCUAGACUACC [A4G C10G G44A], 0.03.
GGCGGAUCUGAACACAACGUGUCAAAGUGCCUGUGGCCAGACUGCC [A4G G7U C10G G17A G22U G30C U38C]: the self-cleavage was found to be 0.02.
Regarding GGCGAAGCUCAACACAGCGUGGCAAAGUGGCUAUGGCUAGACUGCC [A4G G5A G33A], the self-cleavage is 0.16.
Regarding GGCGGAGCUCAACACAGCUUGGAAAAGUGGCUGUGGCUAGACUUCC [A4G G19U C23A G44U], the self-cleavage stood at 0.19.
On to GGCGGAGCUCAACACAGCGUGGCAAAGUAGCCGUGGCUAGACUGCC [A4G G29A U32C], for which the self-cleavage came to 0.06.
For GGCGGAUCUCAACACAGCUUGGCAAAGUGGCUGUGGCUAAACUGGC [A4G G7U G19U G40A C45G], the self-cleavage turned out to be 0.08.
Consider GGCGGAGCUCAACACAGCGUUGCAAAGUGGCUAUGGCUAGACUGCC [A4G G21U G33A], for which the self-cleavage was 0.04.
Under GGCGGAGCUCAACACAGCGUUGCAAAGUGGCUGUGGCUAGACUGCA [A4G G21U C46A] stands 0.07; under GGCGGAGCUCAACACAGCGUUGCAAAGUGGCUGUGGCUAUACUGCC [A4G G21U G40U], 0.15.
As for GGCGGAGCUCAACACAGAUUGGCAAAGUGGCUGUGGCUAGACUGCC [A4G C18A G19U], the figure is 1.06; as for GGCGUAGCUCAACACAGUGUGGCAAAGUGGCUGUGGCUAGACUGCC [A4G G5U C18U], 0.1; as for GGCGGAGCUGAACAAAGCGUGGCAAAGAGGCUGUGGCUGGACUGCC [A4G C10G C15A U28A A39G], 0.01.
In the case of GGCGAAGCUCAACACAGCGUGGCAAGGUGGAUGUGGCUAGACUGAC [A4G G5A A26G C31A C45A], the self-cleavage came out at 0.04.
GGCGGAGCUCAACACAGCGUGGAAAAGUGGCUGUGGCUUGACUGCG [A4G C23A A39U C46G]: the self-cleavage turned out to be 0.06.
As to GGCGGAGCUAAACCCAGCGUGUCAAAGUGGCUGUGGCUAGACUGCC [A4G C10A A14C G22U], the self-cleavage came out at 0.01.
In the case of GGCGUAGCUCAGCACAGAGUGGCUAAGUGGCUCUGGCUAGACUGCC [A4G G5U A12G C18A A24U G33C], the self-cleavage turned out to be 0.02.
Under GGCGGAGCUCAACACAGCGUGGCAAAACAGCUGUGGCUAGACUGCC [A4G G27A U28C G29A] stands 0.13; under GGCGGAGCUCAACACAGCGUGGGCAAGUGGCUGUGGCUAGACUGAC [A4G C23G A24C C45A], 0.21; under GGCGGAGCUCAAUACAUCGUGGCAAAGUGGCUGUGGCUAGACUGCC [A4G C13U G17U], 0.23.
As to GGCGGAGCUCAACACAACGUGCCAAAGUGGCUGUGGCUAGUUUGCC [A4G G17A G22C A41U C42U], the self-cleavage was found to be 0.01.
As for GGCGGAGCUCAACACAACUUGGCAAAGUGCCCGUGGCUCGACUGCC [A4G G17A G19U G30C U32C A39C], the figure is 0.01; as for GGCGGAUCUCAACGCGGCGUGGCUAAGUGCCUCGGGCUAGACUGCC [A4G G7U A14G A16G A24U G30C G33C U34G], 0.06; as for GGCGGAGCUCAACACAGCGUGGGAAAGUGACUGUGGCUAGACUGCC [A4G C23G G30A], 0.62.
In the case of GGCGGAGCUCAACACAGCGUCGCAAAGUGGCUAUGGCUAGACUGCC [A4G G21C G33A], the self-cleavage amounted to 0.07.
As for GGCGGAGCUCAACAUAGCGUGUAAAAGUGGGUGUGGCUAGACUGCC [A4G C15U G22U C23A C31G], the figure is 0.11; as for GGCGGAGCUAAACACAGCGUGGCAAAGUAGCUGUGGCUAGAUUGCC [A4G C10A G29A C42U], 0; as for GGCGGAUCUCAACACAGCGGGGCAAAGUGGCUGUGACUAGACUGCC [A4G G7U U20G G36A], 0.08.
As for GGCGAAGCGCAACACAGCGAGGCAAAGUGGCUGUGGCUAGACUGCU [A4G G5A U9G U20A C46U], the self-cleavage was 0.05.
As for GGCGGAGCUCAACACAGCGUGACAAAGUGGCUGUUGCUAGGCUGCC [A4G G22A G35U A41G], the figure is 0.16.
As for GGCGGAUCUCUACACAGCGUGGCAAAAUGGCUGUGGCUAAACUGCC [A4G G7U A11U G27A G40A], the figure is 0; as for GGCGGAGCUCAACACAGCGUGGCAAAGUGGCUGUGGUUAGACUGCA [A4G C37U C46A], 0.04; as for GGCGGAGCUCAACACAUCGUGGCAAAGUGGCUGUGGCUAGACUGCA [A4G G17U C46A], 0.23.
As for GGCGGAGCUCAACACAGCGUAGCAAAGUGGCUGUGGCUAGACUGGC [A4G G21A C45G], the figure is 0.11; as for GGCGGAGCUCAACACAGCGUGGCAAAGUGGCUGUGGCUAGACUCCA [A4G G44C C46A], 0.02; as for GGCGGAGCUCAACACAGCAUUGCAAGGUGGCUGUGGCUAGACUGAC [A4G G19A G21U A26G C45A], 0.09.
Consider GGCGCAGCUCAACACAGCGUGGCAAAGAGGAUUUGGCUAGACUGCC [A4G G5C U28A C31A G33U], for which the self-cleavage was found to be 0.05.
Under GGCGUAGAUCAACACAGCGUGGCCAAGUGGCUGUGGCUAGACUGCC [A4G G5U C8A A24C] stands 0.77; under GGCGGAGCUAAACACGGCGUGGCAAAGCGGCUUUGGCUAGACUCCC [A4G C10A A16G U28C G33U G44C], 0.01; under GGCGGAGCUCAACACAGCGUUGCAAAGUUGCUGUGGCUAGACUGCC [A4G G21U G29U], 1.37.
Under GGCGGAGCUCAACACAGCGUGGCAAAGUGGAUGUGGCUAGACUGGU [A4G C31A C45G C46U] stands 0.02; under GGCGGAGCUCAACACAGCGUGGUAAAGUGUCUGUGGCUAGACUGCC [A4G C23U G30U], 0.16.
As for GGCGGAGCUCAACACAGCGUGGCAAAAUGGCUGUGGCUAGACUGGC [A4G G27A C45G], the figure is 0.28; as for GGCGGAGCUCAACAAAGCGUGGCAAAGUGACUGUGGGUAGACUGAC [A4G C15A G30A C37G C45A], 0.02.
Regarding GGCGAAGCUAAACACAGCGUAGCAAAGUGGCUGUGGCUAGACUGCC [A4G G5A C10A G21A], the self-cleavage is 0.09.
As for GGCGGAACUCAGCACAGCGUGGCAAAGUAGCUGUGGCUAGACUGCC [A4G G7A A12G G29A], the figure is 0.03; as for GGCGGAGCUCAACACAACGUGGCAUAGUGCCUGUGGCUAGACUUCC [A4G G17A A25U G30C G44U], 0.01.
As for GGCGUAGCUCAACACAGCGCGGCAAAGUGGCUGUGGCUAUACAGCA [A4G G5U U20C G40U U43A C46A], the self-cleavage is 0.05.
Under GGCGGAGCUGAACACAGCGUGGCAAAGUGGCUGUGGCUACAGUGCC [A4G C10G G40C C42G] stands 0.01; under GGCGUAGCUCAACACAGCGUGGCAAAGUGCCUGUGGCUAGACUGCC [A4G G5U G30C], 0.01; under GGCGGAACUCAACACAGCGUGGCAAAGUGGUUGUGGCUAGGGUGCC [A4G G7A C31U A41G C42G], 0.01.
As to GGCGGAGCUGAACAGAGCGUGGCAAAGUGUCUGUGGCUAGACUGCC [A4G C10G C15G G30U], the self-cleavage amounted to 0.
Take GGCGGAGCUCAACACAGCAUGGCAAAGUGGCCGUGGCUACCCUGCC [A4G G19A U32C G40C A41C]: the self-cleavage came to 0.02.
